In all, about 33,000 sequences were measured (“E-score (-0.5 to 0.5)”: median about -0.016, highest 2% from about 0.32 on). This is one part of the list.
Target: T1, Stp1 (UniProt B3LFK1)
T1 sequence: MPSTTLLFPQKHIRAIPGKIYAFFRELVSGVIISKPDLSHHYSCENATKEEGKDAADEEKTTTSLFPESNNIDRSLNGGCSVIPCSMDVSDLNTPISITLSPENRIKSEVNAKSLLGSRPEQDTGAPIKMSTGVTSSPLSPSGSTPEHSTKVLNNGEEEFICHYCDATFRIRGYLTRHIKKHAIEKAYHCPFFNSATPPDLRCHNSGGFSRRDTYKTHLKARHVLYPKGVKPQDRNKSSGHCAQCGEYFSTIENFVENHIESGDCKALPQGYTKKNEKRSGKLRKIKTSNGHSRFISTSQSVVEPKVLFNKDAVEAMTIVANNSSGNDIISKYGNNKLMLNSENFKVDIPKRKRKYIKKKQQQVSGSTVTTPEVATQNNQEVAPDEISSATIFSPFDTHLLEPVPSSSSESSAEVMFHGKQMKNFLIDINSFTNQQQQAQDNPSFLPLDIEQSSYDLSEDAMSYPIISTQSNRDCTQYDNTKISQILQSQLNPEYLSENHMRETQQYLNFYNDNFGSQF
Assay: PBM E-score (8-mer binding enrichment) (E-score (-0.5 to 0.5)); higher = stronger / more preferred TF binding; most listed sequences are background and not binding sites
Conditions: protein concentration: 200 nM; construct: GST-full length
Summary of the method: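 Universal all-10-mer Agilent arrays, fresh or stripped once, were converted to double-stranded form by primer extension. GST-tagged yeast transcription factors from PURExpress in vitro transcription/translation, full-length or DNA-binding domain only, were applied at about 100-200 nM and detected with fluorescent anti-GST. After masliner normalisation, the Universal PBM Analysis Suite scored each ungapped eight-base word together with its reverse complement by E-score.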

| Sequence | PBM E-score |
| --- | --- |
| ACGGTGGG | -0.148 |
| CGGTACCG | 0.0142 |
| GATTCCGC | 0.0804 |
| TCTAGGCA | -0.111 |
| CTGTCTAA | 0.114 |
| CACGGTCG | -0.0893 |
| TCCAAGCA | 0.0574 |
| GAGCAGAC | -0.159 |
| CACGCGAG | 0.189 |
| AGTAAAGG | 0.154 |
| AGAGGTGG | -0.0773 |
| ACTAGGCC | -0.35 |
| TGACAACA | 0.148 |
| GTTAGATA | 0.102 |
| CCGTAAGG | 0.0886 |
| ACTCGCAT | -0.0215 |
| CTTGGGGA | -0.0776 |
| CACATGCC | 0.0814 |
| AAAGACCA | -0.156 |
| CTTGCCAA | -0.21 |
| TTCAGGAA | -0.0113 |
| CACCTCAA | 0.0958 |
| CCCTAGGG | -0.141 |
| ATGACATC | -0.0108 |
| AATAATCT | 0.0183 |

| Sequence | PBM E-score |
| --- | --- |
| ATTAGGCG | 0.198 |
| TGACCAAA | -0.0564 |
| ATGAACGA | 0.092 |
| ACTGAATG | 0.0483 |
| CGCCTACG | 0.147 |
| GGAACCTA | -0.209 |
| AATATCTA | 0.0318 |
| ATTAAACA | 0.0904 |
| GAACCTCC | -0.266 |
| CAGCTCCC | -0.246 |
| GGTGACGA | -0.138 |
| TGATGTAA | 0.0511 |
| ACCTTGAT | -0.00231 |
| GTGGTTCA | 0.112 |
| TCAACCAA | -0.116 |
| AATGAGAC | -0.199 |
| CGGGCATA | -0.155 |
| AAGCTGCG | -0.105 |
| CACTACAC | -0.0919 |
| TAACCGGA | -0.155 |
| CTTTGGCC | -0.0858 |
| CGTTTGGA | 0.0802 |
| AATGCTTC | 0.0234 |
| AGTACCAG | -0.0834 |
| AGTCTGTG | -0.0713 |

| Sequence | PBM E-score |
| --- | --- |
| GGACGTGA | -0.216 |
| ACCTCTGC | -0.064 |
| AATCAGTA | 0.163 |
| GCGATGTA | 0.16 |
| ATTACGTA | 0.212 |
| AGCTCGGG | -0.225 |
| GTTAGAAC | 0.0365 |
| GAGTAAAC | -0.0658 |
| ATTATGCG | 0.188 |
| ATAGGATC | -0.00209 |
| TGATATCA | -0.0775 |
| CTATCACA | -0.0263 |
| GCTTACCA | 0.198 |
| ACTGTGAG | -0.0463 |
| ACCTACTA | -0.1 |
| TTACCGAA | 0.187 |
| CTTTTTTA | 0.226 |
| CAACATAG | -0.0244 |
| AGCATTCC | -0.0592 |
| CAAACCTA | -0.0113 |
| CTCAAATC | -0.18 |
| CCACGGCC | 0.185 |
| AACCAAAG | 0.0816 |
| GCGTCTCA | 0.128 |
| AACAGGGC | 0.192 |

| Sequence | PBM E-score |
| --- | --- |
| ACCGCCCA | -0.253 |
| AAGAGACA | -0.0418 |
| AATGTGGG | -0.108 |
| ACTGGCCC | -0.109 |
| CCAGGGGG | -0.224 |
| CCGGGGTA | -0.288 |
| GCGAACAA | 0.176 |
| AAAAATCC | 0.0149 |
| AAAGAAAC | 0.155 |
| ATTCTGGC | 0.00506 |
| GATCCAGC | 0.0072 |
| CGGGGAAG | -0.0704 |
| AGCTATAA | -0.0475 |
| CCACGTAC | -0.17 |
| CAGCGAGA | -0.209 |
| ACGTGAAG | -0.0283 |
| ATGAGCAC | -0.132 |
| AACCTATT | -0.124 |
| AGGGAACG | -0.12 |
| ACTGATTG | -0.0948 |
| CCCTAAGA | -0.128 |
| CTAAAGAC | 0.0476 |
| CCAAGACC | -0.284 |
| CTTTTTCA | 0.0193 |
| ATCGTTCA | 0.0174 |

| Sequence | PBM E-score |
| --- | --- |
| AGATATAA | 0.206 |
| GCTAGGGA | -0.271 |
| GGCCTAAC | -0.145 |
| CAACTGCC | 0.123 |
| CCATGATC | -0.171 |
| ATCCACCC | -0.254 |
| TCAGTGAA | -0.0946 |
| ACCTGGCG | -0.159 |
| CTTGCCGC | 0.309 |
| CTATTCGA | -0.092 |
| AGATGCAC | -0.129 |
| CAAAGTCA | -0.0611 |
| AAAAATGC | 0.22 |
| GAATTCAA | 0.143 |
| GGCATCCA | -0.204 |
| CCGAGGTA | -0.195 |
| GGTTAGCA | -0.193 |
| GAAGCTTC | -0.321 |
| CGACCCAC | -0.181 |
| AGGAAGCC | -0.068 |
| AATCTTCA | 0.192 |
| AGGAGATC | -0.165 |
| AGCCTTAA | 0.0554 |
| AAGGGTAC | -0.0549 |
| AACAAGTG | -0.0488 |

| Sequence | PBM E-score |
| --- | --- |
| GTGGAGCA | -0.152 |
| AAGCATTG | -0.0121 |
| GAACGGAC | -0.0635 |
| TATTTGCA | 0.156 |
| TGTCCACA | -0.0307 |
| AAGTATTG | -0.0369 |
| CCCAGTTC | -0.149 |
| GGAGCCGA | -0.0393 |
| GTGTTTGA | 0.133 |
| ACACTGAT | -0.14 |
| GCTCCGAA | -0.0216 |
| AGTATTCC | 0.00904 |
| CAGCACTA | -0.0254 |
| CCAGTACC | -0.272 |
| GAGTAGTA | 0.0408 |
| CCTACCCG | -0.0325 |
| CACATAGC | -0.0397 |
| AGCCGGGG | -0.354 |
| ACTATTTA | 0.0337 |
| ATGGCGCA | 0.0846 |
| CGATCGAA | 0.15 |
| AATCCGCG | 0.111 |
| GCCGAACC | 0.166 |
| AACAATTA | 0.103 |
| GGTGGGAC | -0.382 |

| Sequence | PBM E-score |
| --- | --- |
| AATTCTGT | -0.021 |
| AACTATCC | -0.224 |
| CATCTGAC | -0.262 |
| CTACTTAC | 0.0984 |
| CAATGGCA | 0.166 |
| AGCTATGC | -0.096 |
| CGTTACAC | 0.2 |
| CTACGCAC | -0.0526 |
| ATTACACC | -0.0688 |
| CCCTTGGA | -0.0741 |
| CCAGCGTA | -0.0807 |
| GGTGTCCA | -0.147 |
| ACTGAAAG | 0.14 |
| GCGTTTCA | 0.195 |
| CTGTTCCC | -0.15 |
| CGGGGATC | -0.219 |
| GAAATCAC | 0.187 |
| AAAATTCT | 0.0641 |
| AGTCGCCG | 0.369 |
| AAGTTGTC | 0.0392 |
| CAGCTCGA | -0.163 |
| GGTAACAA | 0.171 |
